# Experimental data taken from the supplement of paper PMC7826260.
# The list shows a part of the results. The data describe in vitro nicking of single-stranded DNA by Rep domains (1 h at 37 °C, 3 µM enzyme); the outer parts of the 90-letter strands are left off. Numbers give uncut DNA relative to the enzyme-free pool, as log2; the lower, the more was cut; hits are not called. The scaling is to total reads, so uncut sequences can rise above 0 when many others are cut.
# How the values were obtained:
# Test in all cases: uncleaved DNA left, log2 of reads against the no-enzyme library (log2 ratio); higher = less cleavage (more negative = more Rep cleavage of the k-mer); sequences stand for … in CTCGTCCG…ACCGGAGA
# [1] = tested on: T1, Rep nickase domain of Muscovy duck circovirus
# T1 sequence (residues 1-111 of Rep, tag left off): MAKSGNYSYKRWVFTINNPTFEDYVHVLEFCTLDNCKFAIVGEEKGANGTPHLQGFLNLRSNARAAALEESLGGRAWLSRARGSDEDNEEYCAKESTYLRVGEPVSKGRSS
# Method: (§1)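 A pool of 90-nt single-stranded DNAs with seven random bases just before the constant AC of the nick site (name = the seven bases) was cut by 3 µM recombinant His6-SUMO-tagged Rep nickase domain (300 nM DNA, 50 mM HEPES pH 8.0, 50 mM NaCl, 1 mM MnCl2, 1 h, 37 °C, three replicates). Uncut DNA was amplified and sequenced.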
# [2] = tested on: T2, Rep nickase domain of banana bunchy top virus
# T2 sequence (residues 1-94 of Rep, tag left off): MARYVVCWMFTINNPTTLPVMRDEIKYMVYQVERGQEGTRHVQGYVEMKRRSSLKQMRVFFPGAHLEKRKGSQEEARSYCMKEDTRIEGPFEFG
# Method: as §1
# [3] = tested on: T3, Rep nickase domain of cabbage leaf curl virus
# T3 sequence (residues 1-116 of Rep, tag left off): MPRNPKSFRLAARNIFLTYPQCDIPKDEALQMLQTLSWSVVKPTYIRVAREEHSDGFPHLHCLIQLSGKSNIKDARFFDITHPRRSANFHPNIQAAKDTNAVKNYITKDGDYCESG
# Method: as §1
# [4] = tested on: T4, Rep nickase domain of chickpea chlorotic dwarf virus
# T4 sequence (residues 1-124 of Rep, tag left off): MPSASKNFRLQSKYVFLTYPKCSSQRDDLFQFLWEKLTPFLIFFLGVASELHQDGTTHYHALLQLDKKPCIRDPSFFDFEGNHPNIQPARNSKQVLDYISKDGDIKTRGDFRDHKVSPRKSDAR
# Method: as §1
# [5] = tested on: T5, Rep nickase domain of faba bean necrotic yellows virus
# T5 sequence (residues 1-98 of Rep, tag left off): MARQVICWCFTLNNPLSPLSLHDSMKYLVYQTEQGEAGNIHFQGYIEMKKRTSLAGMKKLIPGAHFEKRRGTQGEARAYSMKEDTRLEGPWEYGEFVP
# Method: as §1
# [6] = tested on: T6, Rep nickase domain of maize striate mosaic virus
# T6 sequence (residues 1-117 of Rep, tag left off): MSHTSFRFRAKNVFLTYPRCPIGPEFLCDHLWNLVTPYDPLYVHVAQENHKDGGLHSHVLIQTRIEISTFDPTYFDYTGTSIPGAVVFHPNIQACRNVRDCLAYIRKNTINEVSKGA
# Method: as §1
# [7] = tested on: T7, Rep nickase domain of porcine circovirus 2
# T7 sequence (residues 2-116 of Rep, tag left off): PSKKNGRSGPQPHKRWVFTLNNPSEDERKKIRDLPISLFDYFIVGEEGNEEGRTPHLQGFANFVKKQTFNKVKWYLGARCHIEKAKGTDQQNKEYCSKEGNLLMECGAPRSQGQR
# Method: as §1
# [8] = tested on: T8, Rep nickase domain of tomato yellow leaf curl virus
# T8 sequence (residues 1-136 of Rep, tag left off): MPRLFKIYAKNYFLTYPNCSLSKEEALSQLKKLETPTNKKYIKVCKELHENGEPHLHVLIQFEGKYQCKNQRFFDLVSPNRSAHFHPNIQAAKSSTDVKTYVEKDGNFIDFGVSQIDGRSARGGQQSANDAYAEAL
# Method: as §1
# [9] = tested on: T9, Rep nickase domain of wheat dwarf virus
# T9 sequence (residues 1-137 of Rep, tag left off): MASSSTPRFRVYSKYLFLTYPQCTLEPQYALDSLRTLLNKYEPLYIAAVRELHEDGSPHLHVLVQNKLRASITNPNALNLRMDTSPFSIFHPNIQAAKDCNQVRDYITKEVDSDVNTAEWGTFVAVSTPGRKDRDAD
# Method: as §1
Sequence,uncleaved DNA left (log2) [1],uncleaved DNA left (log2) [2],uncleaved DNA left (log2) [3],uncleaved DNA left (log2) [4],uncleaved DNA left (log2) [5],uncleaved DNA left (log2) [6],uncleaved DNA left (log2) [7],uncleaved DNA left (log2) [8],uncleaved DNA left (log2) [9]
AACGGAC,-0.0481,-0.0247,0.299,0.964,-0.0386,1.08,0.105,-0.141,0.0455
AGAGTTC,0.0193,-0.112,0.154,-0.706,-0.0635,-0.0748,-0.77,0.036,-0.0177
CATCGAT,0.0826,-0.142,-0.105,-0.296,-0.0224,-0.2,-0.135,-0.138,-0.067
CTCCCAA,-0.0479,0.0751,-0.00236,-0.311,0.0569,-0.481,-0.0348,0.0625,0.1
GGAGACT,0.0328,0.209,0.88,2.1,0.036,2.34,0.252,0.0697,0.199
CACCTCC,-0.097,-0.0357,-0.000863,-0.223,-0.148,0.524,-0.102,-0.0156,-0.0092
GATAAAA,0.0719,0.107,0.333,0.622,0.00971,0.747,0.168,0.038,0.104
ACATCGA,0.108,0.0617,-0.643,-0.499,0.029,-1.01,0.196,0.0093,-0.115
GGGCGGT,0.0601,-0.0647,0.707,1.71,0.0786,2.2,0.143,-0.0604,0.0239
AGAGAGC,0.0778,0.0353,-0.077,0.000221,0.0681,-0.624,0.198,-0.0389,0.0154
TTAGATT,-0.0587,-0.0951,-0.117,-2.2,-0.0825,-0.0715,-0.249,-0.0521,-0.161
CGCCGTA,-0.267,-0.113,-0.196,-0.481,-0.201,-0.347,-0.129,-0.171,-0.124
GTACACT,0.00394,0.0215,0.213,0.476,-0.0131,1.75,0.0491,0.0882,0.097
ACGTCCA,-0.256,-0.0464,-0.254,-0.961,-0.15,-0.544,-0.318,-0.157,-0.176
GAACTTC,-0.0864,-0.00527,0.173,0.237,0.0126,1.08,-0.145,-0.0544,0.106
TTATCTC,-0.258,0.0465,-0.498,-0.47,-0.0733,0.222,-0.0714,0.11,-0.0604
GCGGAAT,0.141,-0.027,0.741,1.69,-0.0332,2.02,0.0929,0.099,0.178
GACATCC,-0.0689,0.0261,0.567,1.24,-0.111,1.68,0.113,-0.0181,0.111
TCACTCG,0.031,-0.00885,-0.817,-0.55,-0.0657,-1.17,0.0405,-0.151,-0.143
GAGTGTT,-2.35,-2.65,-1.21,-1.87,-2.35,0.64,-3.34,0.113,-0.698

Sequence,uncleaved DNA left (log2) [1],uncleaved DNA left (log2) [2],uncleaved DNA left (log2) [3],uncleaved DNA left (log2) [4],uncleaved DNA left (log2) [5],uncleaved DNA left (log2) [6],uncleaved DNA left (log2) [7],uncleaved DNA left (log2) [8],uncleaved DNA left (log2) [9]
ACTCCTT,-0.0367,0.0403,-0.174,-1.95,-0.0191,-0.531,-0.74,-0.123,0.00129
TTTACGC,-0.0164,-0.0334,0.116,-0.53,0.0886,-0.0804,0.146,-0.019,0.0291
CCCATGC,-0.0955,-0.0562,-0.745,-0.725,-0.246,-1.12,0.0776,0.00469,-0.251
ATAAGGT,-0.00113,-0.0136,-1.52,-1.17,-0.0511,1.21,0.123,-0.19,-0.082
AGACCCA,-0.0377,0.0923,0.389,0.875,-0.106,2.06,0.0295,-0.0108,-0.138
AATCGCA,-0.0871,0.119,-0.463,-1.35,0.0147,-1.18,-0.0552,0.0574,-0.0531
GCTCACT,-0.0423,-0.0236,0.133,-1.08,-0.0597,0.0824,-0.351,-0.00425,0.0899
TTAAGAC,0.119,0.00883,-1.88,-2.26,0.0433,-0.308,0.166,-0.0135,-0.268
TCGTTTA,0.0579,0.0309,0.129,-1.01,0.0124,-0.254,-0.57,0.0265,0.043
GGCCAGA,-0.112,0.0274,0.533,1.43,-0.135,1.85,0.0112,-0.0273,-0.0127
CTGACTG,-0.0496,-0.0178,-0.0411,0.642,-0.163,1.6,0.00555,-0.0142,0.0178
ACGCCAC,-0.0681,-0.16,-0.263,-0.457,-0.0937,-0.525,-0.0405,-0.168,-0.0203
CTTGAGC,0.138,-0.049,-0.49,-0.721,0.143,-1.04,0.0166,0.0766,0.00398
ATTAAAG,0.132,0.00602,-0.679,-0.449,0.129,-1.19,0.262,0.0973,0.00235
TGTTCAG,0.0353,0.0369,-0.611,-0.578,-0.052,-1.05,0.199,0.00526,-0.0263
ACGAATA,-0.096,-0.0513,-0.281,-1.12,-0.116,-0.521,-0.037,-0.153,-0.24
TGAGTTT,-0.0161,-0.0955,0.0937,-1.71,0.0827,0.243,-0.101,-0.0453,-0.0534
TCGCGCC,-0.0169,-0.199,-0.464,-0.627,-0.0791,-0.823,-0.0859,-0.0948,-0.174
CTTTGGG,-0.034,-0.0798,-0.729,-0.649,0.0409,-1.01,0.134,0.00647,-0.0502
TGTGCTA,-0.104,-0.083,0.168,0.438,-0.0418,0.941,-0.0285,0.044,-0.0395

Sequence,uncleaved DNA left (log2) [1],uncleaved DNA left (log2) [2],uncleaved DNA left (log2) [3],uncleaved DNA left (log2) [4],uncleaved DNA left (log2) [5],uncleaved DNA left (log2) [6],uncleaved DNA left (log2) [7],uncleaved DNA left (log2) [8],uncleaved DNA left (log2) [9]
GTGGCCT,-0.000896,-0.222,0.369,1.16,-0.0202,1.86,-0.00477,-0.0874,0.0256
GCATTTG,-0.0051,-0.037,-0.559,-0.507,-0.0108,-1.1,0.126,0.00477,-0.172
TTAGCCT,-0.179,-0.153,-0.0891,-2.11,0.0398,-0.678,-0.223,-0.0408,-0.175
GACTAAA,0.0787,-0.0249,0.121,0.468,0.101,0.619,-0.748,-0.0388,0.0513
CGTATTA,-0.164,-0.099,-0.0389,-0.802,-0.0335,-0.304,-0.196,0.0596,0.0212
CTCGTAC,-0.0731,0.0513,-0.00113,-0.804,0.131,-0.668,0.0853,0.0819,-0.0453
TAACGGA,0.0296,-0.0302,-0.107,-0.128,0.0961,-0.0395,-0.0497,-0.147,-0.0484
ACGTACA,-0.0313,0.026,-0.209,-1.3,0.111,-0.562,-0.0698,0.017,0.0368
TCTTATC,-0.0454,0.0668,0.401,0.683,0.0665,0.32,-0.0518,0.0882,0.127
TATAACT,-0.588,-1.05,-1.2,-3.39,0.0182,-0.828,-2.92,0.00902,-0.092
GTATGCG,0.00187,0.116,-0.324,1.08,-0.0183,0.382,0.186,-0.122,-0.0449
GACTCGA,0.0872,-0.0588,-0.0431,0.034,-0.106,-0.306,-0.0188,0.00382,-0.0699
CAGCCCC,-0.0184,-0.134,0.0226,-0.311,-0.00264,0.0163,-0.264,-0.059,-0.0972
TACTCTA,-0.779,-0.13,-0.282,-2.69,-0.0645,-0.413,-2.78,0.02,-0.102
CTAATGC,0.059,0.103,-0.413,-0.482,0.131,-1.15,0.149,0.151,-0.0818
CAGTTCT,-2.4,-3.49,-1.11,-3.34,-3.13,-0.863,-3.85,-0.0744,-0.273
CGGTCAG,-0.0672,0.0704,0.262,1.27,-0.000205,1.09,0.0677,-0.0284,0.00386
CAGTGCC,-0.122,-0.163,-0.736,-0.705,-0.0436,-1.02,-0.851,-0.0484,-0.181
TCGCGAA,-0.107,0.0266,-0.492,-0.552,-0.0118,-1.14,-0.0807,-0.0896,-0.109
ACACTGA,0.00301,-0.0116,-0.167,-0.207,0.0337,-0.541,0.106,-0.083,0.0818
